The text below walks through data of ChEMBL document CHEMBL3352815, “Indolinone based LRRK2 kinase inhibitors with a key hydrogen bond” (Bioorg Med Chem Lett, 2014).

Molecules are shown by their SMILES.

Data set [1] is filed under the species Danio rerio. In words: Toxicity in zebrafish embryo assessed as crooked tails at 30 uM after 24 hrs. It counts as organism-based. The following applies: in vivo. The gist of the method:
(§1)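 Zebrafish embryos collected and kept in E3 medium at 28 °C. Compound added at 24 hpf, and phenotypes (growth, tail morphology) were compared at 96 hpf against control embryos in 1% DMSO. Lethality was followed over time up to 120 hpf across a concentration series.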

Data set [2] addresses Calcium/calmodulin-dependent protein kinase type II subunit alpha (Homo sapiens) (UniProt Q9UQM7). The experiment in a line: Inhibition of human recombinant CaMK2alpha using Ulight-CGSGSGRPRTSSFAEG substrate assessed as remaining enzyme activity at 1 uM after 30 mins relative to control.
A short description of data set [3]: Toxicity in zebrafish embryo assessed as lethality at 50 and 100 uM after 120 hrs. The following applies: in vivo, read-out: Activity. It counts as organism-based, Danio rerio. In a few lines: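 Zebrafish embryos kept in E3 medium at 28 °C; compound added at 24 hpf, with 1% DMSO embryos as control. Concentrations from 1 to 100 µM. Lethality recorded over time through 120 hpf, with phenotype also compared at 96 hpf.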

Data set [4] addresses Fibroblast growth factor receptor 1 (Homo sapiens) (UniProt P11362). In words: Inhibition of human recombinant FGFR1 kinase using Ulight-CAGAGAIETDKEYYTVKD substrate assessed as remaining enzyme activity at 1 uM after 60 mins relative to control.
Data set [5] has as its target Mitogen-activated protein kinase 8 (Homo sapiens) (UniProt P45983). The experiment in a line: Inhibition of human recombinant JNK1 expressed Escherichia coli using Ulight-CFFKNIVTPRTPPPSQGK-amide substrate assessed as remaining enzyme activity at 1 uM after 60 mins relative to control.
In data set [6] the target is Mitogen-activated protein kinase 14 (Homo sapiens) (UniProt Q16539). The experiment in a line: Inhibition of human recombinant p38alpha kinase expressed Escherichia coli using Ulight-CFFKNIVTPRTPPPSQGK-amide substrate assessed as remaining enzyme activity at 1 uM after 60 mins relative to control.
For data set [7], the species on record is Homo sapiens. In words: Inhibition of human recombinant PKA expressed Escherichia coli using Ulight-RRRSLLE substrate assessed as remaining enzyme activity at 1 uM after 10 mins relative to control.
Data set [8] deals with Aurora kinase A (Homo sapiens) (UniProt O14965). The experiment in a line: Inhibition of human recombinant AurA/Aur2 kinase expressed Sf21 cells using Ulight-RRRSLLE substrate assessed as remaining enzyme activity at 1 uM after 15 mins relative to control.
For data set [9], the target named is Serine/threonine-protein kinase SIK1 (Homo sapiens) (UniProt P57059). The experiment in a line: Inhibition of human recombinant SIK expressed Sf21 cells using CREBtide(CKRREILSRRPSYRK) substrate assessed as remaining enzyme activity at 1 uM after 90 mins relative to control.
The target of data set [10] is Fibroblast growth factor receptor 3 (Homo sapiens) (UniProt P22607). In words: Inhibition of human recombinant FGFR3 kinase using Ulight-CAGAGAIETDKEYYTVKD substrate assessed as remaining enzyme activity at 1 uM after 90 mins relative to control.
Data set [11] addresses Mitogen-activated protein kinase 1 (Homo sapiens) (UniProt P28482). In words: Inhibition of human recombinant ERK2 expressed Escherichia coli using Ulight-CFFKNIVTPRTPPPSQGK-amide substrate assessed as remaining enzyme activity at 1 uM after 15 mins relative to control.
In data set [12] the target is Ephrin type-A receptor 2 (Homo sapiens) (UniProt P29317). In words: Inhibition of human recombinant EphA2 kinase using Ulight-TK peptide substrate assessed as remaining enzyme activity at 1 uM after 30 mins relative to control.
Data set [13] addresses Tyrosine-protein kinase JAK3 (Homo sapiens) (UniProt P52333). The experiment in a line: Inhibition of human recombinant JAK3 using Ulight-CAGAGAIETDKEYYTVKD substrate assessed as remaining enzyme activity at 1 uM after 60 mins relative to control.
For data set [14], the target named is Serine/threonine-protein kinase PAK 4 (Homo sapiens) (UniProt O96013). The experiment in a line: Inhibition of human recombinant PAK4 expressed insect cells using Ulight-RRRSLLE substrate assessed as remaining enzyme activity at 1 uM after 30 mins relative to control.
Data set [15] has as its target Protein kinase C beta type (Homo sapiens) (UniProt P05771). The experiment in a line: Inhibition of human recombinant PKCbeta2 using CREBtide (CKRREILSRRPSYRK) substrate assessed as remaining enzyme activity at 1 uM after 15 mins relative to control.
The species entered for data set [16] is Danio rerio. The experiment in a line: Toxicity in zebrafish embryo at 20 uM after 24 hrs. The following applies: in vivo. It counts as organism-based. The gist of the method:
as §1

In data set [17] the target is Serine/threonine-protein kinase PAK 2 (Homo sapiens) (UniProt Q13177). The experiment in a line: Inhibition of human recombinant PAK2 expressed Sf9 cells using Ulight-RRRSLLE substrate assessed as remaining enzyme activity at 1 uM after 60 mins relative to control.
Data set [18] deals with Serine/threonine-protein kinase MARK1 (Homo sapiens) (UniProt Q9P0L2). The experiment in a line: Inhibition of human recombinant MARK1 using Ulight-RRRSLLE substrate assessed as remaining enzyme activity at 1 uM after 30 mins relative to control.
Data set [19] deals with Epidermal growth factor receptor (Homo sapiens) (UniProt P00533). In words: Inhibition of human recombinant EGFR kinase expressed insect cells using Ulight-CAGAGAIETDKEYYTVKD substrate assessed as remaining enzyme activity at 1 uM after 15 mins relative to control.
For data set [20], the target named is Serine/threonine-protein kinase pim-2 (Homo sapiens) (UniProt Q9P1W9). In words: Inhibition of human recombinant Pim2 kinase expressed insect cells using CREBtide (CKRREILSRRPSYRK) substrate assessed as remaining enzyme activity at 1 uM after 60 mins relative to control.
The target in data set [21] is Inhibitor of nuclear factor kappa-B kinase subunit alpha (Homo sapiens) (UniProt O15111). In words: Inhibition of human recombinant IKKalpha expressed Sf21 cells using Ulight-IkappaB-alpha substrate assessed as remaining enzyme activity at 1 uM after 30 mins relative to control.
Data set [22] deals with Mitogen-activated protein kinase kinase kinase kinase 4 (Homo sapiens) (UniProt O95819). In words: Inhibition of human recombinant MAP4K4 using Ulight-FLGFTYVAP substrate assessed as remaining enzyme activity at 1 uM after 90 mins relative to control.
Data set [23] addresses Ephrin type-B receptor 4 (Homo sapiens) (UniProt P54760). The experiment in a line: Inhibition of human recombinant EphB4 kinase expressed insect cells using Ulight-TK peptide substrate assessed as remaining enzyme activity at 1 uM after 90 mins relative to control.
For data set [24], the target named is Fibroblast growth factor receptor 2 (Homo sapiens) (UniProt P21802). In words: Inhibition of human recombinant FGFR2 kinase using Ulight-CAGAGAIETDKEYYTVKD substrate assessed as remaining enzyme activity at 1 uM after 15 mins relative to control.

Sequence of UniProt P29317 (P29317 whole entry): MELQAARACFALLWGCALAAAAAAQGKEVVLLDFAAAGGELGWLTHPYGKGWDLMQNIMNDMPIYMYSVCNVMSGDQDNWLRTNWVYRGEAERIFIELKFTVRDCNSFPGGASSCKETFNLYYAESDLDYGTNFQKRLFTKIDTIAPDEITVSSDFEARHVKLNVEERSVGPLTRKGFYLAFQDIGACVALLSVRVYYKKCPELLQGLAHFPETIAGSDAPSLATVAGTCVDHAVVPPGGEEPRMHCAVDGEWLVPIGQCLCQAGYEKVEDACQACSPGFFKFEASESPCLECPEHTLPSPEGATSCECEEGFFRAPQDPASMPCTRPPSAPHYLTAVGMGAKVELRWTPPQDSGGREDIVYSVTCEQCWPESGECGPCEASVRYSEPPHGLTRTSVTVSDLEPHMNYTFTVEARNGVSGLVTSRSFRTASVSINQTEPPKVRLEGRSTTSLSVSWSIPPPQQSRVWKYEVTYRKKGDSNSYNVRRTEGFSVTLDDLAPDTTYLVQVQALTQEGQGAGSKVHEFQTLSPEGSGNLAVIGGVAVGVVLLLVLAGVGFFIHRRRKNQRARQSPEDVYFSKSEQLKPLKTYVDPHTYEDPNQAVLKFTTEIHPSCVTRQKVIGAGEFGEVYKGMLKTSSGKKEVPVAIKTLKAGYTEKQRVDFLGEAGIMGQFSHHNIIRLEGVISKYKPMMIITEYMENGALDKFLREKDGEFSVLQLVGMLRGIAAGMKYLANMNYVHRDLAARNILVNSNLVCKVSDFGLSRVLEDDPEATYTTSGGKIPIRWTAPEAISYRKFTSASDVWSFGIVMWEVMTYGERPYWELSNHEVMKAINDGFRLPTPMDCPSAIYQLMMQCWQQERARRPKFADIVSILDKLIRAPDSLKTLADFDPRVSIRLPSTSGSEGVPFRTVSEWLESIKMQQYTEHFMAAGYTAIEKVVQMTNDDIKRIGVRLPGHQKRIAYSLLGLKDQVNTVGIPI
Sequence of UniProt P00533 (P00533 whole entry): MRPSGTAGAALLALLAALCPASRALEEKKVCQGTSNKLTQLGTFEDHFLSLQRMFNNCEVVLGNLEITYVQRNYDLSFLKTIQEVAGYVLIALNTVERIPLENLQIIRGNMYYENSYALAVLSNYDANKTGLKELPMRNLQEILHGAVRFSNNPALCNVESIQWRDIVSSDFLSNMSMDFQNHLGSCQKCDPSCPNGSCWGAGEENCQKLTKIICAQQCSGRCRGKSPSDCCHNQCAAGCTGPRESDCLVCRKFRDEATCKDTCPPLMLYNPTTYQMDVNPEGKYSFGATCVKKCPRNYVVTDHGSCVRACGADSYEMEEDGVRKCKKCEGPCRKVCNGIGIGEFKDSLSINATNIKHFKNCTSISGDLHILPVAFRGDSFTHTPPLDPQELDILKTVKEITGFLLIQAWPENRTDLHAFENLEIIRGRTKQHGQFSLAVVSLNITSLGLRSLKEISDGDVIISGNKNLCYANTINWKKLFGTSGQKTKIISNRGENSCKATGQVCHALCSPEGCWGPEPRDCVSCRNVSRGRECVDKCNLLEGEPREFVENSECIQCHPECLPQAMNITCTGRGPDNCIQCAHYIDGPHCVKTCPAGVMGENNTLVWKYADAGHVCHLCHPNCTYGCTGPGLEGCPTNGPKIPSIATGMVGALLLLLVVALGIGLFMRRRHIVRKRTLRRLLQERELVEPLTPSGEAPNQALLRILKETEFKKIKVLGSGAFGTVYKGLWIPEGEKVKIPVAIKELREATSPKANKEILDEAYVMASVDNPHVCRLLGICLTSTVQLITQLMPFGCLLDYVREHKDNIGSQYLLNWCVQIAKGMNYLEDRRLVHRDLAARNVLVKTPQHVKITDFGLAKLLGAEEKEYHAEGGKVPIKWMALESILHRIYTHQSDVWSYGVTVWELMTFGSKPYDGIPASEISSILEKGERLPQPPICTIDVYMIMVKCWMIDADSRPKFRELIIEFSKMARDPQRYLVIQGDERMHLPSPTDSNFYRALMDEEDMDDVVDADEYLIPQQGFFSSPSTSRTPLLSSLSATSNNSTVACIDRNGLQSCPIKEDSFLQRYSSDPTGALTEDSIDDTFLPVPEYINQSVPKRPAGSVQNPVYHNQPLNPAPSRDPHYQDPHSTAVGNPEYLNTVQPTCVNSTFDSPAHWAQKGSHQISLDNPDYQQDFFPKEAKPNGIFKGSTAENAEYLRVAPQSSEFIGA
Sequence of UniProt O96013 (O96013 whole entry, looked up): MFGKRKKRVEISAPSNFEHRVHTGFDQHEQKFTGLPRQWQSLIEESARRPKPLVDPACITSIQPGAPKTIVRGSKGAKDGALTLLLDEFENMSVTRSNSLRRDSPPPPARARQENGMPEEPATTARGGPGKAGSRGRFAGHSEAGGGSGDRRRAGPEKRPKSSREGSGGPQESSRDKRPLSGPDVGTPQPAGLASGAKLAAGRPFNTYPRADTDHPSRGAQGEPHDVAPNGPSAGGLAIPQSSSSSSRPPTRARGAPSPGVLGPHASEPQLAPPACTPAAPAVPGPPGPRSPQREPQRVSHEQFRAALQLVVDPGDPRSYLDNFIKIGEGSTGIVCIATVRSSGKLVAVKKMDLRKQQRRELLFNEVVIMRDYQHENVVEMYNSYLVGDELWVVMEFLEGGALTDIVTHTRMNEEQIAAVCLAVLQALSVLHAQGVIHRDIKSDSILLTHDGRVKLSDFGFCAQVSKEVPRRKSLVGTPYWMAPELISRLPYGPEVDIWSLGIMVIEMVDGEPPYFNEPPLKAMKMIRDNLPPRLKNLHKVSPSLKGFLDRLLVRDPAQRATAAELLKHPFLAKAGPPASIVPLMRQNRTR
Sequence of UniProt O95819 (O95819 whole entry, looked up): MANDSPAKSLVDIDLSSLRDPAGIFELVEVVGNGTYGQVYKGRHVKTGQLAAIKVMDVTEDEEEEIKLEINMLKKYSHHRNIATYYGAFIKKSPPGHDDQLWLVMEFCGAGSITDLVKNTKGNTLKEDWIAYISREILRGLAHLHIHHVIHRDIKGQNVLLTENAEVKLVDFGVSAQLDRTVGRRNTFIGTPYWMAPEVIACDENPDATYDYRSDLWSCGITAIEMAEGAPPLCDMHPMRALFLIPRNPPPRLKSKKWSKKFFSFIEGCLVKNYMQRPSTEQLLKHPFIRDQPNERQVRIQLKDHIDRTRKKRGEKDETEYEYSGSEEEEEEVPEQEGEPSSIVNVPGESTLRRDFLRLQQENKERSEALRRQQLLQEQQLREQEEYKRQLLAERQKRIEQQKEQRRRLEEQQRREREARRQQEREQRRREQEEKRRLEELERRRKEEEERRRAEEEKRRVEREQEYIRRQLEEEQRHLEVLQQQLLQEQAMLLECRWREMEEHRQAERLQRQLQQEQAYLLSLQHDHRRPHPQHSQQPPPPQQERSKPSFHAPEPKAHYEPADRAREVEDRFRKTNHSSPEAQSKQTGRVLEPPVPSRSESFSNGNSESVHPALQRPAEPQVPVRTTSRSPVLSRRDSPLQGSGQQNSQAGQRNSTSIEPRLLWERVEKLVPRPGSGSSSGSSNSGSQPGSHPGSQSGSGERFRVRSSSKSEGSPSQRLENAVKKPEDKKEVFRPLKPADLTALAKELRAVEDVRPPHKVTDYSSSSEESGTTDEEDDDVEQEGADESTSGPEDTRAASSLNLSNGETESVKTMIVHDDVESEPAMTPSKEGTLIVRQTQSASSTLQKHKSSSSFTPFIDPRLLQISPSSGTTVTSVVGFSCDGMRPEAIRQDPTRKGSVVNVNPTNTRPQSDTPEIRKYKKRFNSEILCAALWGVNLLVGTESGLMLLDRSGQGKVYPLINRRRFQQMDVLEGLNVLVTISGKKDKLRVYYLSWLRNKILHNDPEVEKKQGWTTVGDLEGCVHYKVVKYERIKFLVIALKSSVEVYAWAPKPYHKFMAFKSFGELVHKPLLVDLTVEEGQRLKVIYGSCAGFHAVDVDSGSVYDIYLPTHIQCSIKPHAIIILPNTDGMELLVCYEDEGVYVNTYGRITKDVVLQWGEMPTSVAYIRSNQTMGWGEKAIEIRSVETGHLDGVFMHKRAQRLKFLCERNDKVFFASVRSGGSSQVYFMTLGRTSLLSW
Sequence of UniProt O14965 (O14965 whole entry): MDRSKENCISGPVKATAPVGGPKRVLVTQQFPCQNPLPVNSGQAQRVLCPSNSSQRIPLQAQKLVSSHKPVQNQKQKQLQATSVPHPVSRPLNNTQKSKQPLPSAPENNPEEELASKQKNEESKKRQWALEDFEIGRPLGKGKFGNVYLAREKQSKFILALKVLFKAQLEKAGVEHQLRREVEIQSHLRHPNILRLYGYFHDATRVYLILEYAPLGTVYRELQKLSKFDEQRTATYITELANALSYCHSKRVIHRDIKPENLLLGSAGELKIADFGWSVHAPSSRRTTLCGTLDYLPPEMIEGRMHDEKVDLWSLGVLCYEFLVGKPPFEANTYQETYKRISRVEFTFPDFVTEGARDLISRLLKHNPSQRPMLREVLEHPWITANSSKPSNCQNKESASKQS
Sequence of UniProt P45983 (P45983 whole entry): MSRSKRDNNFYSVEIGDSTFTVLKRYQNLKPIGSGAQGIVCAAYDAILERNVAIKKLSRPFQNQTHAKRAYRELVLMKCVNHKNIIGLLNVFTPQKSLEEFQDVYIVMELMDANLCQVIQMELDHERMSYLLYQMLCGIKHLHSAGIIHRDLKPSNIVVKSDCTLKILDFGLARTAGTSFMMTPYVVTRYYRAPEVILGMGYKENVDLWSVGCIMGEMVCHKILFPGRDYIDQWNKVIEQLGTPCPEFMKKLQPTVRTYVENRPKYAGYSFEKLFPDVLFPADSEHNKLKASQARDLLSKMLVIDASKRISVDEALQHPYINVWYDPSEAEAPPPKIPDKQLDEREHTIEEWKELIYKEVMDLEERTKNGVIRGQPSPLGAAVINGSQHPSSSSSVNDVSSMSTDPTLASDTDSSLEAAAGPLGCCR

In the case of `O=C1Nc2ccc(Cl)cc2/C1=C/c1cc(Br)c(O)c(Br)c1`, the Activity result is “Toxic” in [1]; 105% in data set [2]; 101% in data set [4]; 104% in [5]; 92% in [6]; 103% in data set [7]. The Activity in [8] is 73%; in data set [9], 92%; in data set [10] it was 82%; in [11], 100%; in data set [12], 90%; in data set [13], 52%. The Activity in data set [14] is 86%; in data set [15], 85%; in data set [16], “Toxic”; in [17] it was 76%; in data set [18], 86%; in data set [19], 58%. In addition, the Activity in data set [20] was 29%; in data set [21], 95%; in [22], 4%; in data set [23], 108%; in data set [24] it was 91%. For the same compound, the mortality at 120 h in data set [3] was determined as 100%.
